According to a collection of fitness landscapes (doi:10.1038/s41467-024-54723-y):
In all, about 18,000 sequences were measured (“TetR repression strength (sort-seq, GFP reporter)”: median about 0.23, highest 2% from about 0.68 on). This is one part of the list.

Target: TetR (class B, Tn10) (UniProt P04483)
Assay: TetR repression strength (sort-seq, GFP reporter) (relative to tetO2 = 1); higher = stronger repression
Conditions: E. coli
How it was run: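 In LB with 50 µg/mL chloramphenicol, E. coli SIG10-MAX holding a low-copy library with eight randomized operator positions between a constitutive promoter and sfGFP, plus constitutive TetR, grew for 5 h at 37 °C. FACS then sorted 10^6 cells into 13 fluorescence bins for Illumina sequencing of each bin. Repression strength equals the top bin index plus one less the read-weighted mean bin, normalized to the unaltered operator. Values from three independent transformations were averaged when reads were ≥30 in every replicate and the CV was ≤0.5.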

UniProt P04483, sequence (P04483 whole entry): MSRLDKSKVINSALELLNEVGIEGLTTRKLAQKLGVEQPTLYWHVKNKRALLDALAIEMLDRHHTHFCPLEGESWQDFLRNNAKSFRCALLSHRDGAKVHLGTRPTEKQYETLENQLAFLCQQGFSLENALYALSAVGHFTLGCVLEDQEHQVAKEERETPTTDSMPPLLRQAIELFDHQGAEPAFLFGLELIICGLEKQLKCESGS

Sequence	TetR repression strength
TCCCGTTTAGTTAGCGAGA	0.155
TCCCAGGGAGTAGGAGAGA	0.147
TCCCAGGCAGTCGAGGAGA	0.148
TCCCTTAAAGTTTCTGAGA	0.287
TCCCATCTAGTGCTGGAGA	0.319
TCCCGTATAGTGGGGGAGA	0.0618
TCCCGCAGAGTGCTAGAGA	0.299
TCCCATGTAGTCCTGGAGA	0.341
TCCCTTGTAGTCTTGGAGA	0.287
TCCCTGACAGTAAGAGAGA	0.175
TCCCAGAGAGTCAGTGAGA	0.518
TCCCCAGCAGTATTGGAGA	0.178
TCCCTAGTAGTGGAAGAGA	0.181
TCCCGTGCAGTAGGCGAGA	0.151
TCCCGGCTAGTAATGGAGA	0.484
TCCCTGCAAGTGGTTGAGA	0.279
TCCCCAAGAGTTTGGGAGA	0.217
TCCCTGACAGTGGCGGAGA	0.306
TCCCGGCGAGTGCACGAGA	0.0839
TCCCGGTTAGTGCGCGAGA	0.254
TCCCGTAAAGTATCAGAGA	0.231
TCCCAGCAAGTGAGGGAGA	0.218
TCCCGCCTAGTACGAGAGA	0.306
TCCCGTACAGTGGCGGAGA	0.0736
TCCCTTGGAGTAGAGGAGA	0.118
TCCCAGAGAGTTGTTGAGA	0.202

Sequence	TetR repression strength
TCCCGCGGAGTTAGCGAGA	0.198
TCCCCTCCAGTAAGTGAGA	0.0276
TCCCATACAGTGTAGGAGA	0.168
TCCCCGATAGTTATCGAGA	0.189
TCCCCGCAAGTGGGGGAGA	0.218
TCCCGAAAAGTGAAAGAGA	0.36
TCCCAGCAAGTGAAGGAGA	0.0241
TCCCCCTCAGTGAAAGAGA	0.311
TCCCGTTGAGTCATCGAGA	0.204
TCCCCCGGAGTGGTGGAGA	0.148
TCCCCACTAGTCCAAGAGA	0.482
TCCCGGGCAGTATGTGAGA	0.0784
TCCCAGTTAGTTCATGAGA	0.12
TCCCGGTTAGTGGTCGAGA	0.0681
TCCCGTACAGTCTTCGAGA	0.207
TCCCTCATAGTGCTGGAGA	0.466
TCCCTTTCAGTGTTGGAGA	0.276
TCCCTGTTAGTGGTTGAGA	0.322
TCCCCATGAGTGGCGGAGA	0.181
TCCCAGCCAGTTGGGGAGA	0.174
TCCCAGACAGTTGTCGAGA	0.254
TCCCAGCGAGTCAAAGAGA	0.215
TCCCATACAGTGCGCGAGA	0.394
TCCCGACGAGTATCAGAGA	0.356
TCCCTAAGAGTTGGTGAGA	0.137
TCCCGCTCAGTAGTAGAGA	0.245

Sequence	TetR repression strength
TCCCAGGCAGTTCCCGAGA	0.435
TCCCCGTAAGTCAGCGAGA	0.146
TCCCGAGTAGTGTAAGAGA	0.672
TCCCGTTTAGTGTCTGAGA	0.329
TCCCTATTAGTCCGCGAGA	0.312
TCCCATTGAGTGGTGGAGA	0.122
TCCCAGTGAGTAAGAGAGA	0.258
TCCCGGACAGTACGTGAGA	0.231
TCCCGTCCAGTTCTCGAGA	0.00142
TCCCATCGAGTCTGAGAGA	0.218
TCCCGCGTAGTGCTAGAGA	0.152
TCCCCGGGAGTTAGTGAGA	0.121
TCCCTCTGAGTCAGGGAGA	0.521
TCCCTTTGAGTCCAGGAGA	0.207
TCCCAGCGAGTGGATGAGA	0.354
TCCCCTTCAGTTATCGAGA	0.413
TCCCCGCAAGTAGTGGAGA	0.292
TCCCACAAAGTCATTGAGA	0.33
TCCCTAGGAGTGGAAGAGA	0.129
TCCCCGGCAGTCCCAGAGA	0.242
TCCCGGCAAGTAGGGGAGA	0.287
TCCCACGCAGTAGGTGAGA	0.138
TCCCCTGGAGTCAAGGAGA	0.32
TCCCTGTCAGTTACTGAGA	0.327
TCCCTGAGAGTCTTAGAGA	0.158
TCCCACGGAGTATCGGAGA	0.277

Sequence	TetR repression strength
TCCCAGTCAGTGACAGAGA	0.416
TCCCCTTTAGTGCCCGAGA	0.556
TCCCGGGAAGTGTAGGAGA	0.387
TCCCAGATAGTAGTCGAGA	0.103
TCCCGACTAGTAAGGGAGA	0.343
TCCCTTCAAGTTAGGGAGA	0.226
TCCCCGAAAGTCGGTGAGA	0.193
TCCCAAGAAGTTTTTGAGA	0.192
TCCCGAATAGTGTGGGAGA	0.597
TCCCGTAGAGTCCGGGAGA	0.231
TCCCGGCTAGTGGTAGAGA	0.269
TCCCTTTAAGTCTGCGAGA	0.342
TCCCAGTAAGTGCGGGAGA	0.118
TCCCTGAGAGTGTGCGAGA	0.197
TCCCGCATAGTGCAAGAGA	0.37
TCCCGTGAAGTGTATGAGA	0.338
TCCCTCATAGTTGTTGAGA	0.298
TCCCTAGGAGTAGGTGAGA	0.294
TCCCCGAGAGTTCAAGAGA	0.485
TCCCGCGAAGTGGTGGAGA	0.169
TCCCTGAGAGTGGAGGAGA	0.0734
TCCCGTCAAGTGAAAGAGA	0.311
TCCCGTTAAGTGCTAGAGA	0.685
TCCCCGGCAGTTTCAGAGA	0.209
